The campaign covered roughly 220,000 compounds. About 16,000 (7.3%) were called active. The shares of active, inactive and inconclusive entries below differ from those in the screen. The call rests on the fitted dose curve; in most records, active means well fitted inhibition curve with a large enough effect (not every such curve was filed as active); inconclusive means small, poorly fitted or top-dose-only effect, or another doubt; inactive means no such curve, though single readings can be large or run the other way. Potencies of inconclusive entries are doubtful fits and often do not repeat.
Molecular target: Aldehyde dehydrogenase 1A1 (Homo sapiens) (UniProt P00352)
Assay: qHTS Assay for Inhibitors of Aldehyde Dehydrogenase 1 (ALDH1A1);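 on activity, negative = inhibition: plate controls were no enzyme wells and a reference inhibitor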
Conditions: Purified ALDH1A1, NADH fluorescence, propionaldehyde substrate; series mostly up to 75.3 µM; activity, negative = inhibition: at the top concentration
Potency means the concentration at half of the fitted maximal effect; tags describe the fitted curve by direction and shape.

Chain of UniProt P00352 (P00352 whole entry, looked up): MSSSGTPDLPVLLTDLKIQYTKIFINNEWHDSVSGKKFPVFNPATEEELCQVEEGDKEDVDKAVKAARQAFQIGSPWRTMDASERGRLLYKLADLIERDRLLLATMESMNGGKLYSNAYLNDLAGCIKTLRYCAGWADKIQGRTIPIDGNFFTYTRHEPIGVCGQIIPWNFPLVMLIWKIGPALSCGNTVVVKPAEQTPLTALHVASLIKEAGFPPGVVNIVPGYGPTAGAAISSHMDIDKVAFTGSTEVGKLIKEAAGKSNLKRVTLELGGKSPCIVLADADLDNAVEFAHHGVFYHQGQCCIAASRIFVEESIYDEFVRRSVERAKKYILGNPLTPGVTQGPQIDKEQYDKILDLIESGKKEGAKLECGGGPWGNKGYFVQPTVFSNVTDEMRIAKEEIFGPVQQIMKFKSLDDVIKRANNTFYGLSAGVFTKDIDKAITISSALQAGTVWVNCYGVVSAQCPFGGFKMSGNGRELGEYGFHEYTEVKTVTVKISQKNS

Potency, active:
C/C(=N\NS(=O)(=O)c1ccc([N+](=O)[O-])cc1)c1ccc(NC(=O)c2ccco2)cc1 25.1 µM
O=C(NC(=S)Nn1cnnc1)c1ccccc1Cl 10 µM
Cc1cc(C(=O)COC(=O)c2cc(O)c3ccccc3c2O)c(C)n1CC1CCCO1 (stereo not drawn) 28.2 µM
C=CCN1C(=O)S/C(=C/c2ccc(Sc3nc4ccccc4[nH]3)o2)C1=O 10 µM
CCOc1ccccc1-n1c(=S)sc2c(=O)n(-c3ccc(C)cc3)c(=S)[nH]c21 7.94 µM
CCN(CC)c1ccc(C=Nc2ccc(C#N)cc2)c(O)c1 35.5 µM
N#Cc1c(-c2ccco2)c2c([nH]c1=S)CCCC2 20 µM
CC(C)n1c(N2CCN(CC(=O)NCc3cccs3)CC2)nc2ccccc21 10 µM
Cc1ccccc1Nc1nc(-c2sc(NC(=O)c3cccc(Cl)c3)nc2C)cs1 17.8 µM
CCCCc1ccc(NC(=S)Nc2ccc(Nc3ccc(OC)cc3)cc2)cc1 7.08 µM
CC(C)N(Cc1nnc(-c2ccccc2Cl)o1)C(=O)c1cccc(C#N)c1 6.31 µM

Potency, inconclusive:
N#CC1=C(N)C2=CCCC[C@H]2[C@H](c2cccc(F)c2)C1(C#N)C#N 17.8 µM [inhibitor, single point]
CCOc1cc(-c2nnc(-c3ccco3)o2)cc(OCC)c1OCC 28.2 µM [inhibitor, single point]
Cc1cc2nc(-c3ccc(SCC(=O)N4CCN(C(=O)c5ccco5)CC4)nc3)[nH]c2cc1C 25.1 µM [inhibitor, partial curve]
c1ccc(-c2ccccc2-n2cnnn2)cc1 39.8 µM [inhibitor, single point]
COc1ccc(C2CC(c3cccs3)=NN2c2ccc(C=O)cc2)cc1 (stereo not drawn) 3.55 µM [inhibitor, full curve]
CCOC(=O)c1ccccc1-n1c(C)cc(C2N=C(N)Nc3nc4ccccc4n32)c1C (stereo not drawn) 39.8 µM [inhibitor, single point]
Cc1cc(=O)[nH]c(SCC(=O)N(CCC#N)c2ccccc2)c1C#N 17.8 µM [inhibitor, partial curve]
CCOC(=O)Cc1csc(SCC(=O)NC2CCCC(C)C2C)n1 (stereo not drawn) 28.2 µM [inhibitor, partial curve]
CCOc1ccc(S(=O)(=O)NCCC(=O)OCN2C(=O)c3ccccc3C2=O)cc1 39.8 µM [inhibitor, single point]
Cc1ccc(-c2cc(C(=O)NCc3ccco3)c3ccccc3n2)o1 20 µM [inhibitor, partial curve]
N#Cc1ccc(-c2ccc(OCC(=O)NCC(=O)Nc3ccc(F)c(F)c3F)cc2)cc1 28.2 µM [inhibitor, single point]
Cc1ccc(S(=O)(=O)NNC(=O)CCCCC(=O)NNS(=O)(=O)c2ccc(C)cc2)cc1 20 µM [inhibitor, partial curve]
O=C(Nc1c(C(=O)Nc2ccc3c(c2)OCCO3)cnn1-c1ccccc1Cl)c1ccco1 28.2 µM [inhibitor, partial curve, poor fit]
Cn1cccc1Cc1nnc(SCC(=O)N2CCCCCC2)n1-c1ccc(F)cc1 25.1 µM [inhibitor, partial curve]
CCOC(=O)c1c(N2CCCCC2)c2ccccc2[nH]c1=O 39.8 µM [inhibitor, single point]
CCN1CCN(Cc2c(O)ccc3c(=O)c(-c4ccccc4OC)coc23)CC1 35.5 µM [inhibitor, partial curve]
COc1ccc(N2C(=O)NC(NC(=O)c3cccnc3)(C(F)(F)F)C2=O)cc1 (stereo not drawn) 35.5 µM [inhibitor, single point]
Cc1sc(NC(=O)CSc2nnnn2C2CCCC2)c(C#N)c1C 3.55 µM [inhibitor, partial curve]
CSc1ccc(/C=C/C(=O)N2CCCN(C)CC2)cc1 35.5 µM [inhibitor, single point]
COCc1nnc(NS(=O)(=O)c2ccc(NC(C)=O)cc2)s1 22.4 µM [inhibitor, single point]
CC(=O)N1CCCN(Cc2cn(-c3ccc(C)cc3)nc2-c2cccc(C)c2)CC1 8.91 µM [inhibitor, single point]
N#CCCN/N=C(/Cc1nc2ccccc2[nH]1)c1cccc(Cl)c1 39.8 µM [inhibitor, single point]
Cc1ccc(S(=O)(=O)NCc2ccc(C(=O)N(C)CCC#N)cc2)cc1 22.4 µM [inhibitor, single point]
O=[N+]([O-])c1nn(-c2ccccc2)n(O)c1=NCc1ccc2c(c1)OCO2 39.8 µM [inhibitor, single point]
c1csc(-c2nnc(-c3ccc(N4CCOCC4)cc3)o2)c1 35.5 µM [inhibitor, single point]
O=C(OCC(=O)c1ccc(Cl)s1)c1ccc2ccccc2n1 39.8 µM [inhibitor, single point]
Cc1ccc(-n2c(=O)c3sccc3n(Cc3cc(=O)n4ccccc4n3)c2=O)cc1F 7.94 µM [inhibitor, single point]
COc1ccc(N2CCN(CCNS(=O)(=O)c3cccc4nsnc34)CC2)cc1 31.6 µM [inhibitor, single point]
CC1=NNC(=O)/C1=C\c1cn(-c2ccccc2)nc1-c1ccc(F)cc1 39.8 µM [inhibitor, single point]
O=C(Cc1ccccc1)NCC1OCCc2ccccc21 (stereo not drawn) 39.8 µM [inhibitor, single point]
CCN(CC)S(=O)(=O)N1CCC(C(=O)NC2CCCc3ccccc32)CC1 (stereo not drawn) 0.708 µM [inhibitor, full curve]
Cc1cc(Oc2ccccc2)nc2ccc(O)cc12 39.8 µM [inhibitor, single point]
CCCCc1cc(=O)oc2c(CN(C)C)c(O)ccc12 7.94 µM [inhibitor, partial curve]
CCn1c(NCCCO)nc2c(c1=O)C(C)(CC)Cc1ccccc1-2 (stereo not drawn) 28.2 µM [inhibitor, partial curve]
CC(C)OC(=O)CSc1nnc(CNc2nc(-c3ccccc3)cs2)n1C 39.8 µM [inhibitor, single point]
O=C(COC(=O)C1CCCCC1)Nc1cc([N+](=O)[O-])ccc1F 39.8 µM [inhibitor, single point]
Cc1nc(N2CCCCC2C)c2c(C)c(C(=O)Nc3cccc(C(F)(F)F)c3)sc2n1 (stereo not drawn) 31.6 µM [inhibitor, partial curve]
O=C(O)c1cc2c(ccc3ccccc32)oc1=O 22.4 µM [inhibitor, partial curve]
CSc1ccc(/C=C/C(=O)OCC(=O)N(C)CCC#N)cc1 28.2 µM [inhibitor, partial curve]
c1ccc(Cn2nnc3c(N4CCCCCC4)ncnc32)cc1 22.4 µM [inhibitor, single point]
CSc1nsc(SC)c1C(=O)NC(=O)Nc1cccnc1 23.8 µM [inhibitor, partial curve]

activity, negative = inhibition, inactive:
O=C(O)CSc1c[nH]c2ccccc12 -1.41%
O=C(Nc1ccc([N+](=O)[O-])cc1)N1CCCCC1 -13.4%
COc1cccc(NC(=S)N2CCCC2c2ccc(OC)c(OC)c2)c1 (stereo not drawn) 1.4%
CCOC(=O)N1CCN(C(=O)CNS(=O)(=O)c2cccs2)CC1 3.64%
FC(F)(F)c1ccccc1-c1nccc(N2CCNCC2)n1 15.4%
C=C(CC(=O)O)C(=O)O (tested in a mixture with another compound) -1.7% [at 13.5 µM]
COCc1cc(C)nc(OCC(=O)N/N=C/c2ccccc2)c1C#N 4.47%
C#CCCCO/N=C1/C[C@@H](O)[C@@H](O)[C@@H]2[C@@H]3C(=O)N(CCC(=O)OCC)C(=O)[C@H]3CC[C@@H]12 -2.35% [at 13.5 µM]
CCn1ccnc1[C@@H]1C[C@H]2CN(c3ccccc3OC)C(=O)[C@]23CCCN13 3.43%
O=C(O)c1cccc(S(=O)(=O)Nc2ccc(O)c(Sc3nc4ccccc4s3)c2)c1 -11.5%
Cc1cccc(CNc2ncncc2-c2ccccc2CN(C)C)c1 9.39%
Cc1ccc(C(=O)O)cc1S(=O)(=O)N1CCCC1 0.357%
CC(OC(=O)/C=C/c1cccs1)C(=O)Nc1ccc(S(N)(=O)=O)cc1 (stereo not drawn) 3.47%
Cc1cccc(-n2c(O)c(C=Nc3cc(O)ccc3C)c3ccccc3c2=O)n1 11.5%
CN1CCN(NC(=O)CN2C(=O)/C(=C/c3c(Cl)cccc3Cl)SC2=S)CC1 -6.33%
CN(C)c1ccc(C(=O)c2ccc(N(C)C)c3ccccc23)cc1 5.24%
COc1cc(/C=N/NC(N)=O)ccc1OCC(=O)Nc1cc(C)c(C)cc1Br -6.14%
Cc1ccc(C2CCN(C(=O)Nc3ccccc3)C2)cc1 (stereo not drawn) -6.78%
CC1=C(C)CS(=O)N(c2ccc(S(N)(=O)=O)cc2)C1 (stereo not drawn) -1.71%
CCOC(=O)c1c(NC=O)sc2c1CCC2 -10.3%
O=C(N/N=C/c1ccc([N+](=O)[O-])cc1)c1cccc2cc[nH]c12 6.12%

Source: PubChem BioAssay AID1030 (National Center for Advancing Translational Sciences (NCATS), 2008)
